# In all, about 340,000 compounds went through this assay and about 170 (0.05%) were called active. Not shown: some 26% with an inconclusive outcome. Calls come from the whole dose curve; as a rule, active = well fitted inhibition curve with a large enough effect in the signal ratio, with a control signal flat (not every such curve was filed as active); inconclusive = small, poorly fitted or top-dose-only effect, or effect the other way, or a change in a side signal; inactive = flat fitted curve, though single readings scatter; the % refers to the signal ratio. This is a selection; strong and weak results do not stand in their true shares.
# Assay: qHTS Assay to Find Inhibitors of Chronic Active B-Cell Receptor Signaling;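 for activity change, negative = inhibition: plate controls were basal doxycycline-induced cells for no effect and cells given 10 µM MG132 for full effect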
# Conditions: ABC-DLBCL IkBa-CBG/CBR reporter, luminescence ratio (green luciferase fused to IkBa over red control in TMD8 lymphoma cells), 4 h; series mostly up to 46.1 µM; activity change, negative = inhibition: at the top concentration
# Outline: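 TMD8 ABC-DLBCL cells carrying doxycycline-inducible green luciferase fused to IkappaBalpha plus unfused red luciferase were exposed to compounds (up to 46 uM) for 4 hrs at 37C. Activity came from the overlap-corrected green/red luminescence ratio.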
# Potency is the fitted concentration of half-maximal effect.
Compound,Potency,"activity change, negative = inhibition"
COc1ccc(Cn2c(=O)c3[nH]cnc3n(-c3ccccc3C)c2=O)cc1,active: 15.8 µM,
CC(=O)Nc1ccc(NC(=O)CCSCCc2ccccn2)cc1,,inactive: 9.27%
Oc1ccc(COC2CCCC2)c2cccnc12,active: 7.31 µM,
CC(=O)C[C@H](O)CC(=O)[C@H]1OC(=O)CCCCCCCCc2ccccc21,,inactive: 1.36%
CCOC(=O)c1c(O)cc(C)[nH]c1=O,,inactive: 12.8%
C[C@]12C(=O)N(c3ccc(Br)cc3)C(=O)N1[C@@H]1c3ccccc3OC[C@@H]1[C@H]2c1ccccc1,,inactive: -3.55%
CC(C)(C)[C@@H]1COC(=O)[C@@H](Cc2ccc(F)cc2)CC/C=C\C[C@@H](CC(=O)N(CCO)Cc2ccccc2)C(=O)N1,,inactive: -2.26%
C#CCNC(=O)C1=C[C@H](c2csc3ccccc23)[C@@H](CCCO)[C@H](OCC)O1,,inactive: 6.03%
COc1cc(/C=C2\OC(=O)c3c(OC)cccc32)ccc1O,active: 9.2 µM,
c1nc(NCc2ccc3c(c2)OCO3)c2cc(-c3ccoc3)ccc2n1,,inactive: -2.44%
Cc1c(Cl)cnc(NC(=O)COC(=O)C(NC(=O)c2ccco2)C(C)C)c1Cl (centres undefined),,inactive: 1.5%
COC(=O)C1=COC(C)C2CN3CCc4c([nH]c5ccccc45)C3CC12 (centres undefined),,inactive: -1.28%
OCC[C@H]1C[C@H](O)[C@@H](O)[C@]2(CCc3ccccc3CO2)O1,,inactive: 0.72%
Cc1ccc(C(=O)N/C(=C/C=C\c2ccccc2)C(=O)NCc2ccco2)cc1,,inactive: -0.333%
CCCNC(=O)c1ccc2c(c1)nc(C)n2-c1cccc(C)c1,,inactive: -0.183%
Oc1c(C=C2N=c3ccccc3=N2)sc(=S)n1C1CCCCC1,,inactive: 8.34%
C[C@@H]1NC(=O)[C@@]2(C)[C@@H](c3ccccc3)[C@H]3COc4ccccc4[C@@H]3N2C1=O,,inactive: -0.3%
CS(=O)(=O)c1cccc(-c2csc(N3CCC(C(N)=O)CC3)n2)c1,,inactive: -4.45%
Cc1cccc(N2C(=O)N3[C@@H]4c5ccccc5OC[C@@H]4[C@@H](c4ccccc4)[C@]3(C)C2=O)c1,,inactive: 20.5%
COc1ccc([C@@H]2CC(=O)c3c(O)cc(O[C@@H]4OC(CO[C@@H]5OC(C)[C@H](O)[C@H](O)C5O)[C@@H](O)[C@@H](O)C4O)cc3O2)cc1O (some centres undefined),,inactive: 2.71%
CC1(/[N+]([O-])=C\c2ccccc2F)CCCCC1=O (centres undefined),,inactive: 3.75%
CCOc1cc(/C=C2\NC(=O)NC2=O)cc([N+](=O)[O-])c1O,,inactive: 12.3%

Compound,Potency,"activity change, negative = inhibition"
C=CC[C@H](CC(=O)N(CCO)Cc1ccccc1)C(=O)NCCOC(=O)[C@@H](CC=C)Cc1ccc(F)cc1,,inactive: -0.934%
CC(=O)c1cc2c(cc1N/C(=N/S(=O)(=O)c1ccc(C)cc1)c1ccc(Cl)cc1)OCO2,,inactive: 1.33%
Cc1cc(C)c2c(c1)[C@@H]1C=CC[C@@H]1[C@H](c1ccc(S(=O)(=O)N3CCOCC3)cc1)N2,,inactive: -0.869%
CCO[C@@H]1OC(C(=O)NCc2ccccc2)=C[C@H](c2ccc(C(F)(F)F)cc2)[C@H]1CCCO,,inactive: 21.9%
COC(C[C@H]1O[C@H]1[C@H](O)COCc1ccccc1)OC,,inactive: 3.36%
O=C(C1=C[C@H](C2CC2)C[C@H](OCCCCO)O1)N1CCOCC1,,inactive: 11%
CC(=O)[C@H]1CC[C@H]2[C@@H]3CC=C4C[C@@H](O)CC[C@]4(C)[C@H]3CC[C@]12C,,inactive: -1.13%
C=CC[C@H](CC(=O)N(CCO)Cc1ccccc1)C(=O)N[C@H](COC(=O)[C@@H](CC=C)CC(=O)OC(C)(C)C)Cc1ccccc1,,inactive: -0.322%
C/C=C(/C)C(=O)OC1c2c(ccc3ccc(=O)oc23)OC(C)(C)C1OC(=O)/C(C)=C\C (centres undefined),,inactive: 13.7%
CN1CCN(C(=O)CCN2C(=O)/C(=C/c3ccc(F)cc3)SC2=S)CC1,,inactive: -1.59%
COc1ccc(/C=N/NC(=O)CCn2cnc(-c3ccccc3)c2-c2ccccc2)cc1,active: 23.1 µM,
COc1ccc(N2C(=O)CS/C2=N\C(=S)Nc2ccccc2)cc1,active: 10 µM,
Cc1ccn2c(c1)nc(=O)c1cc(S(=O)(=O)N3CCCCC3)ccc12,,inactive: 15.8%
NC(=O)C1CCN(c2nc(-c3ccc(F)cc3)cs2)CC1,,inactive: 25.6%
CC(=O)c1cc2c(cc1N/C(=N/S(=O)(=O)c1ccccc1)c1ccc(Cl)cc1)OCO2,,inactive: 15.5%
CCOC(=O)c1c(CN2CCCCC2)oc2ccc(OC)cc12,,inactive: -0.0808%
O=C(NC(Cc1ccccc1)C(=O)O)/C(=C/c1ccc(Br)cc1)NC(=O)c1ccc(Br)o1 (centres undefined),,inactive: 8.53%
Cc1nc2c(o1)CCc1ccccc1C2N1CCN(C)CC1 (centres undefined),,inactive: 3.57%
CCO[C@H]1OC(C(N)=O)=C[C@@H](c2coc3ccccc3c2=O)[C@@H]1CCCO,,inactive: -0.351%
COc1cc(/C=C2\SC(=Nc3ccc(O)cc3)NC2=O)cc(OC)c1O,,inactive: -11.4%
CCOc1cc(/C=C2\C(=O)ON=C2C)ccc1OCc1ccccc1,,inactive: 5.1%
COC(C[C@@H]1O[C@H]1[C@@H](O)[C@@H](C)OCc1ccccc1)OC,,inactive: -1.74%

Compound,Potency,"activity change, negative = inhibition"
CC(C)(C)[C@@H]1COC(=O)[C@H](Cc2ccc(F)cc2)C/C=C\C[C@H](CC(=O)N(CCO)Cc2ccccc2)C(=O)N1,,inactive: -2.39%
CN1C(=O)S/C(=C/c2ccccc2OCc2ccc(C(=O)O)cc2)C1=O,,inactive: 16.7%
COc1ccc(-c2csc(N3CCC(C(N)=O)CC3)n2)cc1,,inactive: -15.1%
CCOC(=O)[C@@H]1[C@H]2COc3ccccc3[C@@H]2N2C(=O)N(c3ccc(Cl)cc3)C(=O)[C@]12C,,inactive: 2.47%
N#C/C(=C/c1ccco1)c1nc2ccccc2s1,,inactive: -5.08%
O=C(CCN1C(=O)/C(=C/c2ccccc2)SC1=S)NCCCN1CCOCC1,,inactive: 15.8%
CCN1C(=NCC2CC2)N[C@@H](c2cccc(C(F)(F)F)c2)C(C(=O)OC)=C1C,,inactive: 8.27%
C[C@@H](NC(=O)c1nc[nH]c1C(=O)N[C@H](C)c1ccccc1)c1ccccc1,,inactive: 5.07%
COC(C[C@@H]1O[C@H]1[C@H](O)COCc1ccccc1)OC,,inactive: 7.95%
COc1ccc(-c2cc(=O)c3c(O)cc(OC4OC(COC5OC(C)C(O)C(O)C5O)C(O)C(O)C4O)cc3o2)cc1O (centres undefined),,inactive: 19.5%
COC(C[C@H]1O[C@H]1[C@@H](O)COCc1ccccc1)OC,,inactive: -2.07%
CN1CCC(=C2c3ccccc3CC(=O)c3sccc32)CC1,,inactive: -1.88%
Cc1ccccc1CN1C(=O)c2ccccc2Sc2ccc(C(=O)NCCCN3CCOCC3)cc21,,inactive: 7.88%
N#C/C(=N\O)c1nc(-c2ccccc2)cs1,,inactive: -0.858%
O=c1cc(-c2ccc(O)c(O)c2)oc2cc(O)c(C3OC(CO)C(O)C(O)C3O)c(O)c12 (centres undefined),,inactive: 8.97%
O=C(C[C@@H]1C/C=C\C[C@H](NC(=O)OCC2c3ccccc3-c3ccccc32)C(=O)OC[C@@H]2CCCN2C1=O)N[C@H](CO)Cc1ccccc1,,inactive: 0.816%
CC(=O)Nc1ccc(Oc2cc(C#N)c(C#N)cc2N2CCOCC2)cc1,active: 20.6 µM,
Cc1ccc(/C=C/C(=O)c2nc3ccccc3[nH]2)cc1,active: 12.6 µM,
Cc1ccc(-c2cc(C(=O)O)c3cc(Br)ccc3n2)s1,,inactive: -0.33%
COc1ccc(NC(=O)/C(C#N)=C\C=C\c2ccco2)cc1,,inactive: -16.2%

# — PubChem BioAssay AID493014 (National Center for Advancing Translational Sciences (NCATS), 2011)
